The values below come from PubChem BioAssay AID1347073 (National Center for Advancing Translational Sciences (NCATS), 2019).

Hit rate of the full screen: of about 45,000 compounds, about 200 (0.44%) were called active. Another 7% or so got no clear call; they are omitted. Calls follow the shape of the dose curve; as a rule, active = well fitted activation curve with a large enough effect; inconclusive = small, poorly fitted or top-dose-only effect; inactive = no such curve, though single readings can be large or run the other way. The list shows a part of the results.

This experiment is described as follows: qHTS of TDP-43 Inhibitors: NCGC Sytravon Library Screen. Also: 0% is about no effect; nearly all actives have a fitted effect of over 55% in size. Particulars: yeast TDP-43 toxicity rescue, BacTiter-Glo growth, 24 h; series mostly up to 46.1 µM; growth rescue (activation): at the top concentration. The gist of the method:
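TDP-43-expressing yeast, pregrown in raffinose, seeded at OD600 0.02 in galactose medium with compound for 24 hr at 30 deg C. Growth read by BacTiter-Glo luminescence, so rescue of toxicity appears as activation.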
(In general: In qHTS, concentration-response curves come from the screen itself.)
As to `O=C(CN1C(=O)NC(c2ccccc2)(c2ccccc2)C1=O)NCc1ccco1`, the “growth rescue (activation)” value was inactive: 15.2%. To `COCCn1c(N)c(N(Cc2ccccc2)C(=O)Cc2ccccc2F)c(=O)[nH]c1=O` belongs inactive: -4.52%; to `Nn1c(SCC(=O)NCCCc2ccccc2)nnc1-c1cccnc1`, inactive: 32.9%; to `Cc1cccc(-n2c(C)cc(C(=O)NC3CCCCC3)c2C)c1`, inactive: 12.3%. To `CCN1C(=O)/C(=C\N2CCN(c3cccc(Cl)c3)CC2)SC1=S` belongs inactive: -8.07%; to `Cc1sc2ncnc(OCC(=O)NC(C)C(C)C)c2c1C` (stereo not drawn), inactive: -19.5%. Under `COc1ccccc1C(=O)OCC(=O)NC(C)CCc1ccccc1` (stereo not drawn) stands inactive: 15%. As to `CCCOc1ccc(N2C(=O)CC(N(Cc3ccco3)C(=O)CCC(=O)O)C2=O)cc1` (stereo not drawn), the “growth rescue (activation)” value is inactive: 19.1%.

For `O=C(NCCN1CCOCC1)c1ccc(Cl)c(S(=O)(=O)N2CCCCC2)c1`, the “growth rescue (activation)” value was inactive: -28.7%. Under `CC(C)(C)n1nc2c(c1NC(=O)c1cccc(C(F)(F)F)c1)CS(=O)C2` (stereo not drawn) stands inactive: 25.2%; under `Cc1ccc(NC(=O)CN2C(=O)NC(Cc3c[nH]c4ccccc34)C2=O)cc1S(=O)(=O)N1CCCCC1` (stereo not drawn), inactive: 17%; under `CCc1ccc(NC(=O)CCS(=O)(=O)c2ccc3c(c2)n(C)c(=O)c(=O)n3C)cc1`, inactive: 2.96%.

For `CCOC(=O)C1(Cc2ccc(OC)cc2)CCN(C(=O)CN2CCOC2=O)CC1`, the “growth rescue (activation)” value is inactive: -3.18%. Under `CCC(c1nnnn1Cc1ccccc1)N(Cc1ccco1)Cc1cc2cc(OC)ccc2[nH]c1=O` (stereo not drawn) stands inactive: 18.5%. Under `CCC(=O)N(CCO)Cc1cc2ccc(C)c(C)c2[nH]c1=O` stands inactive: -9.93%; under `COc1ccccc1NS(=O)(=O)c1cccc(C(=O)N/N=C(\C)c2ccc3c(c2)OCCO3)c1`, inactive: -5.38%; under `Cc1c(Cl)cccc1NC(=O)CNC(=O)c1ccccc1F`, inactive: -1.13%. Under `CSc1cccc(NC(=O)C2C3C=CC4(O3)C2C(=O)N(CCCN2CCOCC2)C4C(=O)NC2CCCCC2)c1` (stereo not drawn) stands inactive: 8.3%; under `Cc1ccccc1OCC(O)Cn1c(=N)n(CCN2CCCCC2)c2ccccc21` (stereo not drawn), inactive: 1.63%; under `Cc1cc(C(=O)OCC(=O)Nc2ccccc2C(F)(F)F)on1`, inactive: -9.45%. On to `CC1(C)C2CCC1(CS(=O)(=O)NCc1ccc(C(=O)O)cc1)C(=O)C2` (stereo not drawn), for which the “growth rescue (activation)” value was inactive: 18.2%. To `COc1ccc(CNC(=O)C/C(C)=N/NC(=O)Cc2ccc(OC)c(OC)c2)cc1` belongs inactive: 6.43%. To `O=[N+]([O-])c1cccc(-c2noc(COc3ccccc3)n2)c1` belongs inactive: 11.2%; to `CCn1c(C)nc2c(C)[n+](CC(=O)c3ccc(Br)cc3)ccc21`, inactive: -8.65%; to `CC1(c2cccc(Br)c2)NC(=O)N(CC(=O)N2CCc3ccccc32)C1=O` (stereo not drawn), inactive: -7.61%. To `O=C(CCC(=O)NC1CCCCC1)N/N=C/c1ccncc1` belongs inactive: -15.4%; to `COc1cccc(OC)c1C(=O)NC(=S)Nc1ccc2c(c1)C(=O)N(C)C2=O`, inactive: -13.6%; to `Cc1ccc(-c2cc3c(n2-c2ccc(C(=O)O)cc2)CCCC3=O)cc1`, inactive: -26.1%.
